Measured values reported in PubChem BioAssay AID1458 (National Center for Advancing Translational Sciences (NCATS), 2008).
In all, about 210,000 compounds went through this assay and about 5,900 (2.8%) were called active. The inconclusive results got no clear call from the source; some entries with a clear call stand among them for comparison. The call rests on the fitted dose curve; in most records, active means well fitted activation curve with a large enough effect; inconclusive means small, poorly fitted or top-dose-only effect; inactive means no such curve, though single readings can be large or run the other way. Potencies of inconclusive entries are doubtful fits and often do not repeat.

assay: qHTS Assay for Enhancers of SMN2 Splice Variant Expression; settings: HEK293 SMN2-luciferase splicing reporter, luminescence, 30-36 h; activity change, positive = activation: at 46.1 µM (top of the series); further: nearly all actives have a fitted effect of over 55% in size; on activity change, positive = activation: % of control where 0% means no effect
Method in brief: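 HEK293 cells carry an SMN2 […]–luciferase reporter in which exon 7 inclusion puts luciferase in frame. Cells were plated 10-12 h before compound addition, then incubated 30-36 h at 37C. ONE-Glo luminescence was read; sodium butyrate at 4.5 mM final served as control.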
Potency means the concentration at half of the fitted maximal effect; tags describe the fitted curve by direction and shape.

Row | Compound | Potency | activity change, positive = activation
1 | COc1ccc(NC(=O)OCC(C)C)cc1OC | inconclusive: 11.2 µM [activator, partial curve, poor fit] | –
2 | Cc1cc(-c2nnco2)c(C)n1-c1ccccc1 | inconclusive: 11.2 µM [activator, partial curve] | –
3 | CCc1ccc2nc3n[nH]c(N)c3cc2c1 | inconclusive: 0.112 µM [activator, full curve, poor fit] | –
4 | CCCCCCNS(=O)(=O)c1nc2nc(C)cc(C)n2n1 | inactive | –
5 | Cc1snc2sc(C(=O)c3ccc(Br)cc3)c(N)c12 | inconclusive: 17.8 µM [activator, single point] | –
6 | Cn1c(=O)c(-c2cc(F)cc(F)c2)nc2cnc(Oc3cccc(Cl)c3)nc21 | inactive | –
7 | CC(NC(=O)c1ccc2c(c1)OCO2)C1CCCO1 (stereo not drawn) | inactive | –
8 | COc1ccc(C(=O)N(Cc2ccco2)C(C(=O)NC2CCCC2)c2ccc(O)cc2)cc1OC (stereo not drawn) | inconclusive: 2.24 µM [activator, full curve] | –
9 | CN(C)/C=N/c1sc2c(c1C#N)CCCCC2 | inconclusive: 20 µM [activator, single point] | –
10 | COCCOC(=O)CSc1ncccc1-c1nc2cc(C)c(C)cc2[nH]1 | active: 15.8 µM | –
11 | O=C1Nc2ccccc2/C1=C/C(=O)c1cccs1 | inconclusive: 8.91 µM [activator, partial curve] | –
12 | COCCOCCn1c(/C=C/c2ccccc2)nc2ccccc21 | active: 12.6 µM | –
13 | Cc1nn2c(-c3ccncc3)nnc2c2ccccc12 | inconclusive: 35.5 µM [activator, single point] | –
14 | COc1cc(/C=C/c2nc(-c3ccccc3O)n[nH]2)cc(OC)c1OC | inconclusive: 17.8 µM [activator, single point] | –
15 | CN(C)S(=O)(=O)Oc1cccc(C(=O)Nc2cccc(Cl)c2)c1 | inconclusive: 20 µM [activator, partial curve] | –
16 | COc1cccc(/C=N/NC(=O)C(C)n2nc(C)c([N+](=O)[O-])c2C)c1O (stereo not drawn) | inconclusive: 35.5 µM [activator, single point] | –
17 | O=C(NCC1CCCO1)c1ccc(N2CCCCC2)nc1 (stereo not drawn) | inconclusive: 12.6 µM [activator, single point] | –
18 | O=C(O)c1cccc(-c2nnn(Cc3ccccc3)n2)c1 | active: 2.51 µM | –
19 | COc1ccc2nc(Nc3nc4cc5c(cc4s3)OCCO5)sc2c1 | active: 20 µM | –
20 | CCOc1ccc(C2C(C(=O)c3ccco3)=C(O)C(=O)N2CCCn2ccnc2)cc1 (stereo not drawn) | inconclusive: 0.141 µM [activator, full curve, poor fit] | –
21 | O=C(CSc1nnc(COc2ccccc2)n1Cc1ccco1)c1ccc(F)cc1 | inconclusive: 0.02 µM [activator, full curve, poor fit] | –
22 | COc1ccc(C(=O)/C=C/Nc2cccc(C)n2)cc1OC | active: 12.6 µM | –
23 | O=S(=O)(Nc1cc(Sc2cccc3cccnc23)c(O)c2ccccc12)c1ccccc1 | inconclusive: 5.62 µM [activator, partial curve, poor fit] | –
24 | Cc1nn(-c2ccccc2)c(C)c1/C=N/NC(=O)CSc1nnc(SCc2ccccc2Cl)s1 | inconclusive: 7.08 µM [activator, partial curve, poor fit] | –
25 | COc1cccc(C2C3=C(CCCC3=O)Nc3[nH]n(-c4ccccc4)c(=O)c32)c1 (stereo not drawn) | inconclusive: 25.1 µM [activator, partial curve] | –

Row | Compound | Potency | activity change, positive = activation
26 | COc1ccc(-n2nc([N+](=O)[O-])c(=NCCc3ccc(Cl)cc3)n2O)cc1 | inconclusive: 5.62 µM [activator, partial curve, poor fit] | –
27 | CC1CN(C(=O)C2(C)CC2(Cl)Cl)CC(C)O1 (stereo not drawn) | inconclusive: 14.1 µM [activator, single point] | –
28 | COc1cc(/C=N/Nc2ccccc2)ccc1OC(=O)c1cccs1 | inconclusive: 35.5 µM [activator, single point] | –
29 | CCCCCCC(=O)Nc1cc2c(C)cc(=O)oc2cc1C | inconclusive: 35.5 µM [activator, single point] | –
30 | Nc1nnc(SCn2nnc3ccccc3c2=O)s1 | inconclusive: 0.398 µM [activator, full curve] | –
31 | Clc1ccc(-c2cnn3c(-c4ccncc4)ccnc23)cc1 | active: 3.16 µM | –
32 | Cc1cccc(C)c1OC(=O)CSc1nnc(-c2ccccc2)o1 | inactive | –
33 | COc1cc(C(=O)OCCn2c(=O)c3c(ncn3CCN(C)C)n(C)c2=O)cc(OC)c1OC | inconclusive: 8.91 µM [activator, partial curve, poor fit] | –
34 | O=C(CN1C(=O)C2C3C=CC(C3)C2C1=O)Nc1ccc(S(=O)(=O)N2CCCCC2)cc1 (stereo not drawn) | inactive | –
35 | O=c1[nH]c2cc3c(cc2cc1CN(Cc1ccccc1)Cc1nnnn1Cc1ccco1)OCCO3 | inactive | –
36 | CCc1ccc(-c2csc(-c3c[nH]c4ccccc34)n2)cc1 | active: 12.6 µM | –
37 | COc1ccc(-c2nc(CCNC(=O)c3cccs3)cs2)cc1 | inactive | –
38 | C/C(=N\NC(=O)COc1ccccc1)c1cccs1 | inconclusive: 15.8 µM [activator, partial curve] | –
39 | COc1ccc(C(=O)NCC2OCCc3ccccc32)c(O)c1 (stereo not drawn) | inconclusive: 5.62 µM [activator, full curve] | –
40 | CC(=O)N(C)c1ccc(OCC(O)COc2ccc(N(C)C(C)=O)cc2)cc1 | inconclusive: 14.1 µM [activator, single point] | –
41 | O=C(Oc1ccc(Cl)c2cccnc12)c1ccco1 | inconclusive: 3.55 µM [activator, partial curve, poor fit] | –
42 | CN1CCN(c2nc3c(c(=O)n(C)c(=O)n3C)n2C)CC1 | – | inactive: -4.78% [at 9.22 µM]
43 | CCOc1ccc2nc(N3CCCC(C(=O)NCCCOC)C3)sc2c1 (stereo not drawn) | active: 14.1 µM | –
44 | COC(=O)CC(=O)CSc1nc2c(cc1C#N)CCC2 | active: 1.26 µM | –
45 | N/C(=N\OC(=O)c1ccccc1Cl)c1ccccn1 | inconclusive: 3.55 µM [activator, partial curve, poor fit] | –
46 | COc1ccc(NC(=O)c2cccnc2SC)cc1OC | inactive | –
47 | COc1ccc2c(=O)c(-c3nc(C)cs3)coc2c1 | active: 4.47 µM | –
48 | Cc1cc(C)nc(Nc2n[nH]c(-c3ccccc3C)n2)n1 | active: 11.2 µM | –
49 | Cc1cc2nc(-c3ccc(OCc4ccc(F)cc4)cc3)cc(C(F)(F)F)n2n1 | inactive | –
50 | O=C(NCc1ccccn1)c1ccc(CNS(=O)(=O)c2cccc(Cl)c2)cc1 | inconclusive: 0.251 µM [activator, full curve, poor fit] | –

Row | Compound | Potency | activity change, positive = activation
51 | CCN1CCN(CCC(=O)Nc2ccccc2OC)CC1 | inactive | –
52 | O=C1OC(c2ccccc2)=N/C1=C\N1CCCCC1 | inconclusive: 12.6 µM [activator, single point] | –
53 | CCOc1ccc(NC(=O)C(C)O)c(NS(=O)(=O)c2ccc(CCNC(C)=O)cc2)c1 (stereo not drawn) | inconclusive: 0.02 µM [activator, full curve] | –
54 | O=C1CC(N2CCN(c3cccc(C(F)(F)F)c3)CC2)C(=O)N1c1ccccc1 (stereo not drawn) | inconclusive: 6.31 µM [activator, partial curve] | –
55 | O=C/C(=C\Nc1ccccn1)c1nc2ccccc2o1 | inactive | –
56 | COc1cccc(C2C=C(c3ccc(OC)cc3OC)Nc3nnnn32)c1 (stereo not drawn) | inactive | –
57 | O=c1[nH]c2cc3c(cc2cc1C(c1nnnn1CC1CCCO1)N1CCCCCC1)OCCO3 (stereo not drawn) | inconclusive: 5.62 µM [activator, single point] | –
58 | O=C(O)CCCN1CCCCC1 | inconclusive: 1.26 µM [activator, single point] | –
59 | Cc1ccccc1OCC(O)Cn1c(NCc2ccco2)nc2c1c(=O)[nH]c(=O)n2C (stereo not drawn) | inconclusive: 2.82 µM [activator, full curve, poor fit] | –
60 | CCN=C1S/C(=C\c2ccc(-c3cccc(C(=O)O)c3)o2)C(=O)N1CC | active: 3.55 µM | –
61 | COc1cc(/C=N/NC(=S)Nc2cccc(C(=O)O)c2)cc(OC)c1OC | inconclusive: 11.2 µM [activator, partial curve, poor fit] | –
62 | CCCC(=O)Nc1nc(-c2ccccc2)ns1 | inconclusive: 17.8 µM [activator, partial curve, poor fit] | –
63 | Cc1ccc(S(=O)(=O)Nc2nc(C)cc(N/N=C/c3ccc(O)cc3)n2)cc1 | inactive | –
64 | COc1ccc(C(=O)N2CCn3c2nc2ccccc23)cc1 | inconclusive: 8.91 µM [activator, partial curve] | –
65 | CCCn1c(-c2ccc(F)cc2)nc2c(N3CCN(CCC(=O)OCC)CC3)nc(C)nc21 | inactive | –
66 | CS(=O)(=O)N(CC(=O)N1CCCCCC1)c1ccc2c(c1)OCCO2 | inconclusive: 35.5 µM [activator, partial curve, poor fit] | –
67 | O=C(O)c1nc2ccccc2nc1C(=O)O | inconclusive: 35.5 µM [activator, single point] | –
68 | CN(C)c1ccc(C(=O)c2ccc(O)cc2O)cc1 | inconclusive: 35.5 µM [activator, single point] | –
69 | N#C/C(=C\c1ccc(-c2ccc(F)cc2F)o1)c1nc2ccccc2[nH]1 | inactive | –
70 | COc1ccc(CNC(=O)COC(=O)c2ccc(OCc3c(C)noc3C)cc2)cc1OC | inconclusive: 3.98 µM [activator, single point] | –
71 | CS(=O)(=O)N(CC(=O)N/N=C/c1cccc2c1OCCO2)c1ccccc1Br | inactive | –
72 | COCCOc1cnn(-c2cc(Oc3ccc(C)cc3)ncn2)c(=O)c1Cl | inconclusive: 5.62 µM [activator, single point] | –
73 | COC(CNC(=S)Nc1ccc([N+](=O)[O-])cc1)OC | inconclusive: 5.01 µM [activator, full curve, poor fit] | –
